Experimental data published in US20050282889A1, “Intracorporeal medicaments for photodynamic treatment of disease” (priority 1996, published 2005).

Test system: various other gram positive and gram negative bacteria
Assay: Photodynamic eradication of microbes
Settings: aqueous solution approximately 1 to 10 micromolar; green light 500-600 nm

Question: For `O=C1OC2(c3cc(I)c(O)c(I)c3Oc3c2cc(I)c(O)c3I)c2c(Cl)c(Cl)c(Cl)c(Cl)c21` [Rose Bengal, 4,5,6,7-tetrachloro-2′,4′,5′,7′-Tetraiodofluorescein], which Eradication of microbes is on record?
Answer: substantial or complete eradication
